Test results from PMC7819943, “Rice protein-binding microarrays: a tool to detect cis-acting elements near promoter regions in rice”.
The list shows a part of the results.

What follows are sequences tested against T1, OsWOX13 (Oryza sativa, UniProt Q5QMM3 1-267) (assay: protein-binding microarray (RPBM); PBS, 2% BSA, 51.3 ng/ul salmon testes DNA, 50 uM zinc acetate, 200 nM TF, 25 C, 1 h; high values mean tight binding). Settings: protein: recombinant; tags: N-terminal polyhistidine and DsRed monomer fusion (pET32a); label: CyDye5-dUTP incorporated in the synthesized complementary strand; 3' TTTTT single-stranded linker to array surface; dsDNA, one strand shown.
T1 sequence: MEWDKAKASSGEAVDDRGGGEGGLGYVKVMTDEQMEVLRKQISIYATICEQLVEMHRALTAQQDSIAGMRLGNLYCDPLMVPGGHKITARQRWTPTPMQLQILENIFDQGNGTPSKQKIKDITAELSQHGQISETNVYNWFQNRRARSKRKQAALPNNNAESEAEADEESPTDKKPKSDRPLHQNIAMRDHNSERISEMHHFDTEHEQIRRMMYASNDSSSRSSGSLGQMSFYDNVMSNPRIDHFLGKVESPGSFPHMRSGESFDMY
Method in brief: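 In PBS with 2% BSA, salmon testes DNA and 50 µM zinc acetate, 200 nM protein was incubated on a custom Agilent array at 25 °C for 1 h and then washed off. The array had been made double-stranded by primer extension with Cy5-dUTP and blocked with 2% BSA. The proteins were transcription factors fused N-terminally to polyhistidine and DsRed, expressed in E. coli BL21-CodonPlus and purified on Ni–NTA. The binding signal is per-feature fluorescence intensity (arbitrary units) from an Axon 4000B scanner.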

Row | Sequence | binding signal
1 | TTTTGATGAAATAAACTATGAAAATCCTGTGAAATTCATGCGGAGTCACCTAGTGCAG | 7340 fluorescence intensity (a.u.)
2 | CTAAACTATTGAAATAAGTGTAATTTGACTTCTCCAATGGCGGAGTCACCTAGTGCAG | 7150 fluorescence intensity (a.u.)
3 | CTTGATGTGATATTGCTGCCTTCCAAATGGGACTTGGATCCGGAGTCACCTAGTGCAG | 10100 fluorescence intensity (a.u.)
4 | ACCTCTTCCATTTCCATCTTTCTGTTTCTGATTCATTAAACGGAGTCACCTAGTGCAG | 4930 fluorescence intensity (a.u.)
5 | GCTTAATTAGCCCAATAATAGTAAATAAATTAAAACTCGACGGAGTCACCTAGTGCAG | 33400 fluorescence intensity (a.u.)
6 | GCCCGACGGTGACTGGACTCACTTAGCGGTGACTGGTTCGCGGAGTCACCTAGTGCAG | 3610 fluorescence intensity (a.u.)
7 | GGGATTGCGAGATTGGGAGCGACTTCCGCGCCCGCATATACGGAGTCACCTAGTGCAG | 5600 fluorescence intensity (a.u.)
8 | ATAAAATTTCAAATCAACCTGATTTGTTTGAATTAATACACGGAGTCACCTAGTGCAG | 28800 fluorescence intensity (a.u.)
9 | GTGGTGATTTCATCAATTTTAAGATACGCCGGCTCGGTTTCGGAGTCACCTAGTGCAG | 15400 fluorescence intensity (a.u.)
10 | CTCGCTAATTAGATGGATAAACTTCGTTTATCGCGTCCCACGGAGTCACCTAGTGCAG | 42400 fluorescence intensity (a.u.)
11 | CTGATTATCTGAATATCTGGATCCCCGTCACTCACATGCACGGAGTCACCTAGTGCAG | 16100 fluorescence intensity (a.u.)
12 | GATGGTGTAATGACTGATGTGATCCTTTTGTCCTTGTCCACGGAGTCACCTAGTGCAG | 4430 fluorescence intensity (a.u.)
13 | ATTTGACAAGACTCCAATTAAATTTTATATGCGGGTATTACGGAGTCACCTAGTGCAG | 13900 fluorescence intensity (a.u.)
14 | TGTCTACTAGGTGTCATTGTCAATCTGTCATTGCACAACTCGGAGTCACCTAGTGCAG | 3400 fluorescence intensity (a.u.)
15 | TAGAAATAATTAGGATGATATAACTTATCGATAGAAGAGACGGAGTCACCTAGTGCAG | 8980 fluorescence intensity (a.u.)
16 | GGCGTTAATCACGTGATGGGCATGGATAGTGATTTAGATTCGGAGTCACCTAGTGCAG | 13900 fluorescence intensity (a.u.)
17 | AACCTTCTCGAACTTAATTTAATTGATGGGGCCTTTGAATCGGAGTCACCTAGTGCAG | 11000 fluorescence intensity (a.u.)
18 | ATCTTATTTTAGATTGCTGCATTTTAATACGGACGAAGTACGGAGTCACCTAGTGCAG | 9140 fluorescence intensity (a.u.)
19 | TTGTTAATTATGAGTTCATATCTCGCAATTTCAAGCAAATCGGAGTCACCTAGTGCAG | 14200 fluorescence intensity (a.u.)
20 | CCTAATGATAATTAAGAGGAGTGATGATGGGCATGCCATTCGGAGTCACCTAGTGCAG | 27000 fluorescence intensity (a.u.)
21 | TATGCAGAATTAATTTATTTAATCACCTCTATTGACTTGACGGAGTCACCTAGTGCAG | 10700 fluorescence intensity (a.u.)

Row | Sequence | binding signal
22 | TGCTTGACTGTGAGTACTGTTTGGGAGGGAGAGTGGTAAACGGAGTCACCTAGTGCAG | 6190 fluorescence intensity (a.u.)
23 | GTACTTATATATATATAGATAGATTGAAATAGAACTAAACCGGAGTCACCTAGTGCAG | 7280 fluorescence intensity (a.u.)
24 | CCTAATTGACAAATGATTTCACCACGTCCCTTTCCATTTTCGGAGTCACCTAGTGCAG | 34200 fluorescence intensity (a.u.)
25 | GGTGCCGGTGATAGCGATAATTGACTAATTTTCTGGTTACCGGAGTCACCTAGTGCAG | 32300 fluorescence intensity (a.u.)
26 | TTCTCCAATCAATCCAATCCAATCCTCGTGTAGGCCACCACGGAGTCACCTAGTGCAG | 40800 fluorescence intensity (a.u.)
27 | TCTTAATCAATCACAATATCTCTCTATTTAATTCTACCTACGGAGTCACCTAGTGCAG | 21300 fluorescence intensity (a.u.)
28 | CTGGATTGCTTTATCTCCCAGTGACTAACCATTCCAAATTCGGAGTCACCTAGTGCAG | 7210 fluorescence intensity (a.u.)
29 | AAAATAAAGATTGAGTGTCACAAAACTACAGGTTTGGTATCGGAGTCACCTAGTGCAG | 6490 fluorescence intensity (a.u.)
30 | GTATTAAACATACATTAATTACAAAATCCATTTCAGAAGCCGGAGTCACCTAGTGCAG | 21200 fluorescence intensity (a.u.)
31 | AGTTTATGATAATTTAAATTTATATAGTATGTAGAATGGTCGGAGTCACCTAGTGCAG | 14400 fluorescence intensity (a.u.)
32 | CATTGATTTGATGCGTCTGGTAGTGTGGTGGTGTTCTTGACGGAGTCACCTAGTGCAG | 41700 fluorescence intensity (a.u.)
33 | GATGATGTAAACCTGATCAGATTTGCTCGAGTTGGTTTGACGGAGTCACCTAGTGCAG | 7280 fluorescence intensity (a.u.)
34 | CTAAGCTGTGATTTCTTTTCTTTATGTCACCACCTCCAAACGGAGTCACCTAGTGCAG | 3460 fluorescence intensity (a.u.)
35 | ACACGGTTAATTAAAGCTCCACTGTCCGTATAGTGCATCACGGAGTCACCTAGTGCAG | 7610 fluorescence intensity (a.u.)
36 | TCCAAAACATCAATAATTATGAAACCGGTGGGAGTACTCACGGAGTCACCTAGTGCAG | 7200 fluorescence intensity (a.u.)
37 | ATTAATTAATTATTATAAATTTAGAAAATGCGTTCATTTGCGGAGTCACCTAGTGCAG | 35900 fluorescence intensity (a.u.)
38 | TATTATATGAATTGGCTATTAAATTAGTTATAAATGAATTCGGAGTCACCTAGTGCAG | 3710 fluorescence intensity (a.u.)
39 | GTGATTTTGTGAAAATTAAAATTGTTGTACTTCTAAATATCGGAGTCACCTAGTGCAG | 3370 fluorescence intensity (a.u.)
40 | TCATCGGCAAGTGCTACCCTTCAATCTCCCCACTGTGGACCGGAGTCACCTAGTGCAG | 7100 fluorescence intensity (a.u.)
41 | CTCATGACTGACAGTTATGAGAGGCAAAACGAATAACAGTCGGAGTCACCTAGTGCAG | 17100 fluorescence intensity (a.u.)
42 | TTACAAATTATTAAAACGGTGAAATTATATTATAAAGGTCCGGAGTCACCTAGTGCAG | 6370 fluorescence intensity (a.u.)
